Measurements published in PubChem BioAssay (NCATS).
The inconclusive results got no clear call from the source; some entries with a clear call stand among them for comparison. For part of these data: No potency is given beside an inconclusive call; the fits are too rough. Active and inactive are the calls of the source. Calls follow the shape of the dose curve; as a rule, active = well fitted curve in the direction sought with a large enough effect; inconclusive = small, poorly fitted or top-dose-only effect, or another doubt; inactive = no such curve, though single readings can be large; an effect the other way counts as inactive or inconclusive.

Experiments:
[1] = qHTS to identify inhibitors of the type 1 interferon - major histocompatibility complex class I in skeletal muscle: primary screen against the NCATS LOPAC collection (AID 1347405);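 also: lytic HiBiT luminescence reporting HLA-B protein level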; also: potency is read from the fitted curve at half-maximal effect; as to activity change, negative = inhibition: % is scaled to controls: 0 for no effect and ±100 for the full control effect
Procedure, shortened: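 Cells: C25cl48 human myoblasts, HiBiT-tagged HLA-B*08:01, stimulated with IFN-beta 4.0 ng/ml. Compounds are titrated 1:4.3 over 7 points from 46 uM final and incubated 24 hrs; endogenous MHC class I is quantified by HiBiT lytic luminescence.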

[2] = qHTS to identify inhibitors of the type 1 interferon - major histocompatibility complex class I in skeletal muscle: primary screen against the NCATS Pharmaceutical Collection (AID 1347407); settings: human skeletal muscle cells, IFN-b-induced MHC-I HiBiT luminescence, 24 h; activity change, negative = inhibition: at 45.9 µM (top of the series);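 also: luminescence of HiBiT knocked into endogenous HLA-B as interferon-induced MHC class I level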; also: potency is read from the fitted curve at half-maximal effect; as to activity change, negative = inhibition: % is scaled to controls: 0 for no effect and ±100 for the full control effect
Procedure, shortened: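 Luminescence from HiBiT-tagged endogenous HLA-B*08:01 served as the read-out of IFN-beta-induced MHC class I in CRISPR-engineered C25cl48 myoblasts. Cells received 4 ng/ml IFN-beta plus compound (high final 46 uM, […]) for 24 h.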

[3] = DH5-alpha competent E. coli microbial cell viability qHTS against the NCATS CANVASS Library (AID 1347377); settings: BacTiter-Glo ATP luminescence, overnight; also: potency is read from the fitted curve at half-maximal effect
Procedure, shortened: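 Cell viability of competent DH5-alpha E. coli is scored from ATP content by luminescence. Cells sit overnight at 37C with compound across an 11-point concentration series.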

[4] = qHTS for H2AX Agonists against the NCATS CANVASS Library (AID 1347378); settings: CHO-K1 H2AX phosphorylation, HTRF TR-FRET, 3 h; at 76.9 µM (top of the series);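 also: phospho-H2AX S139 level in CHO-K1 lysates by TR-FRET emission ratio; 0% is about no effect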
Procedure, shortened: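 CHO-K1, 1000 cells/well, o/n 37C; cpd several conc, 3 hr 37C, 0.76% DMSO; lyse 30 min RT; cryptate anti-pH2AX(S139) + d2 anti-H2AX, 24 hr RT; HTRF 665/620.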

[5] = qHTS for Antimalaria activity screened against the NCATS CANVASS Library (AID 1347380);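 also: Plasmodium falciparum strain Dd2 asexual parasites grown in red blood cells; nearly all actives have a fitted effect of over 40% in size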; settings: P. falciparum Dd2 growth, SYBR Green fluorescence, 72 h; at 28.7 µM (top of the series)
Procedure, shortened: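 Growth inhibition of asexual erythrocytic P. falciparum Dd2 was quantified by SYBR Green DNA staining. Cultures grew 72 h with compound (11-point series) in hypoxic gas at 37C; lysis and staining lasted 18 h.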

[6] = qHTS for inhibitors of ER calcium dysfunction: SERCaMP assay screened against the NCATS CANVASS Library (AID 1347393);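 also: % is scaled to controls: 0 for no effect and ±100 for the full control effect; lower secreted reporter signal means inhibitor of ER calcium depletion; nearly all actives have a fitted effect of over 40% in size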
Procedure, shortened: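 qHTS in SH-SY5Y reporter cells: 16 h compound pretreatment, 4 h thapsigargin, then secreted Gaussia luciferase measured by luminescence.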

[7] = qHTS for Hypoxia signaling pathway (HIF-1) antagonists against the NCATS CANVASS Library (AID 1347374); settings: HRE-bla ME-180 cells, HIF-1 beta-lactamase reporter, CoCl2; also: potency is read from the fitted curve at half-maximal effect; nearly all actives have a fitted effect of over 60% in size
Procedure, shortened: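 HRE-bla ME-180 cells (2,000/well, 0.5% dialyzed FBS) were pre-incubated 5 h, then given an 11-point compound series plus CoCl2 (60 uM solution as added) for 17 h at 37C. CCF4 β-lactamase read (ex 405, em 460/530 nm) after 2 h at RT.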

[8] = Secretion counterscreen for inhibitors of the SERCaMP assay screened against the NCATS CANVASS Library (AID 1347390);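 also: light from luciferase secreted into medium read as a measure of general secretion; % is scaled to controls: 0 for no effect and ±100 for the full control effect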
Procedure, shortened: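 SH-SY5Y-GLuc STOP cells; 4 h attach; cpds 0.001 - 77 uM (qHTS, 11 pts), 20 h 37C/5% CO2; coelenterazine in glow buffer; luminescence, 5 s exposure.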

[9] = qHTS to identify inhibitors of the type 1 interferon - major histocompatibility complex class I in skeletal muscle: primary screen against the NCATS Mechanism Interrogation Plate v5.0 (MIPE) Libary (AID 1347411); settings: iHSKM cells + IFN-b, HiBiT-tagged MHC-I luminescence, 24 h; activity change, negative = inhibition: at 45.8 µM (top of the series); also: nearly all actives have a fitted effect of over 65% in size; also: potency is read from the fitted curve at half-maximal effect;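 as to activity change, negative = inhibition: plate controls were vehicle for no effect and reference inhibitor for full effect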
Procedure, shortened: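 Cells were genome-edited human myoblasts carrying a HiBit tag on endogenous HLA-B. They were treated with IFN-beta (4.0 ng/ml) and titrated compounds (top 46 uM) for 24 hrs before lytic HiBiT detection.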

[10] = Primary qHTS for inhibitors of La Crosse Virus (LACV) - induced cell death in SH-SY5Y cells (AID 1508616); also: potency is read from the fitted curve at half-maximal effect;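 as to activity change: top concentration of the series differs between compounds; 0% = infected DMSO wells and 100% = uninfected DMSO wells; higher means more rescue of cells from virus-induced death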
Procedure, shortened: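 Readout was luminescence from ATPLite 1step added after a 6-day LACV infection (0.01 MOI) of SH-SY5Y cells that had received pin-transferred compound 24 hr after seeding.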

[11] = Validation qHTS assay for inhibitors of Activation Induced Cytidine Deaminase (AID): UDG Counterscreen signal (AID 1347427); settings: biochemical UDG counterscreen, fluorescence signal; also: potency is read from the fitted curve at half-maximal effect
Procedure, shortened: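 Counterscreen read of UDG activity (2 U/mL, 4/3x) in the FRET deamination format with AID (1 uM, 4/3x), DJC20/DJC23 substrates (250 nM, 4x), 4 h at room temperature. NaOH stop, fluorescence at 560 ex/665 em.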

[12] = target: Protein phosphatase 1D (Homo sapiens) (UniProt O15297); assay: Rhodamine-PBP qHTS Assay for Modulators of WT P53-Induced Phosphatase 1 (WIP1) (AID 1347425); also: % of control where 0% means no effect
Procedure, shortened: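 Steps: enzyme with Rh-PBP sensor and compounds, room-temperature incubation of 1 hr, baseline read, addition of VEPPL-pS-QETFS (10 uM final), kinetic fluorescence reads at 525/598 nm. Activity equals final minus baseline signal.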
Tags tell the direction and shape of the fitted curve.

Sequence of UniProt O15297 (O15297 whole entry, looked up): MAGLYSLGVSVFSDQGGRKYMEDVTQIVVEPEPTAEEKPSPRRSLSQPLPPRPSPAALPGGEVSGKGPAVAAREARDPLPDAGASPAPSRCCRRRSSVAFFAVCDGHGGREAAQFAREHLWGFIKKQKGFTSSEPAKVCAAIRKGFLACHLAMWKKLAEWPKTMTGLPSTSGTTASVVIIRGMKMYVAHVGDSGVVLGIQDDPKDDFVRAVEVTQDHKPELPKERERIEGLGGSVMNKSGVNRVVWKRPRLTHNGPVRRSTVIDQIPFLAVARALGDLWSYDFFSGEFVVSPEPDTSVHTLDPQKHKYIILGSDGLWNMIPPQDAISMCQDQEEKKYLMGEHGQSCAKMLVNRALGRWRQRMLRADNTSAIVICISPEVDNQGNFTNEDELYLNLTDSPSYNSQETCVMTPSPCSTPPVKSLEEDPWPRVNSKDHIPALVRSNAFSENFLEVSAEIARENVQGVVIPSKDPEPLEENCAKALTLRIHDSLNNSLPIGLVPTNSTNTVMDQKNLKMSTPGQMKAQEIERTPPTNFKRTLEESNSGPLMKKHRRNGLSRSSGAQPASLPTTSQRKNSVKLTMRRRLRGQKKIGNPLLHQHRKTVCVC

Structure (SMILES): COC(=O)C1=C(C)NC(C)=C(C(=O)OC)C1c1ccccc1[N+](=O)[O-]
- Potency [1]: inconclusive [inhibitor, single point]
- Potency [2]: inactive

Structure (SMILES): CN1CCC[C@@H]1c1cccnc1
- Potency [3]: inconclusive [cytotoxic, full curve, poor fit]
- activation [4]: inactive: -2.99%
- activity change, negative = inhibition [5]: inactive: -48.4%
- Potency [6]: inactive

Structure (SMILES): O=c1cc(-c2ccccc2)oc2cc(O)c(O)c(O)c12
- Potency [7]: inconclusive [inhibitor, single point]
- Potency [3]: inconclusive [cytotoxic, full curve, poor fit]
- Potency [8]: inactive
- Potency [9]: inconclusive [inhibitor, partial curve]

Structure (SMILES): NC[C@@H]1O[C@H](C23CC4CC(CC(C4)C2)C3)Cc2c1ccc(O)c2O
- Potency [1]: inconclusive [inhibitor, partial curve, poor fit]

Structure (SMILES): CN(C)c1ccc(/C=C2\C(=O)Nc3ccccc32)cc1
- Potency [1]: inconclusive [inhibitor, partial curve, poor fit]

Structure (SMILES): O=C1NC(=O)/C(=C/c2ccc(-c3ccc(F)cc3O)o2)S1
- Potency [1]: inconclusive [inhibitor, partial curve, poor fit]
- Potency [10]: inactive

Structure (SMILES): COC(=O)C1=C(C)NC(C)=C(C(=O)OCC(C)C)C1c1ccccc1[N+](=O)[O-] (stereo not given)
- Potency [2]: inconclusive [inhibitor, single point]

Structure (SMILES): O=c1cc(-c2ccccc2)oc2ccccc12
- Potency [2]: inconclusive [inhibitor, single point]

Structure (SMILES): COC(=O)Nc1nc2ccc(C(=O)C3CC3)cc2[nH]1
- Potency [2]: inconclusive [inhibitor, full curve]

Structure (SMILES): O=C(/C=C/c1ccc(O)cc1)c1ccc(O)cc1O
- Potency [1]: inconclusive [inhibitor, single point]
- Potency [9]: inconclusive [inhibitor, single point]
- Potency [10]: inconclusive [inhibitor, single point]

Structure (SMILES): CNCC[C@H](Oc1cccc2ccccc12)c1cccs1
- Potency [2]: inconclusive [inhibitor, single point]

Structure (SMILES): COC(=O)C1=C(C)NC(C)=C(C(=O)OCC(C)=O)C1c1ccccc1[N+](=O)[O-] (stereo not given)
- Potency [2]: inconclusive [inhibitor, single point]

Structure (SMILES): O=C(OCc1ccccc1)c1ccccc1
- Potency [2]: inactive

Structure (SMILES): Oc1ccc2ccccc2c1SSc1c(O)ccc2ccccc12
- Potency [1]: inconclusive [inhibitor, single point]
- Potency [9]: inconclusive [inhibitor, single point]
- Potency [11]: inconclusive [inhibitor, full curve]

Structure (SMILES): CC(=O)Oc1cc2c(s1)CCN(C(C(=O)C1CC1)c1ccccc1F)C2 (stereo not given)
- activity change, negative = inhibition [2]: inconclusive: -33.7% [inhibitor]

Structure (SMILES): CC(C)c1ccc2c(c1)c(SC(C)(C)C)c(CC(C)(C)C(=O)O)n2Cc1ccc(Cl)cc1
- Potency [1]: inconclusive [inhibitor, single point]
- activity change, negative = inhibition [9]: inconclusive: -35.1% [inhibitor]
- Potency [10]: inconclusive [inhibitor, single point]

Structure (SMILES): CCOc1cc(NC(C)=O)ccc1C(=O)OC
- Potency [2]: inactive

Structure (SMILES): OC(CN1CCC(Cc2ccc(F)cc2)CC1)c1ccc(Cl)cc1 (stereo not given)
- Potency [1]: inconclusive [inhibitor, single point]
- Potency [12]: inactive

Structure (SMILES): OC1(c2ccc(Cl)cc2)CCNCC1
- Potency [2]: inactive

Structure (SMILES): CNCCCCOc1ccccc1Cc1ccccc1
- Potency [2]: inconclusive [inhibitor, single point]

Structure (SMILES): O=c1[nH]cc(F)c(=O)[nH]1
- Potency [1]: inactive
- Potency [10]: inconclusive [inhibitor, single point]

Structure (SMILES): COc1cc2c(cc1O)CC[C@@H]1[C@@H]2CC[C@]2(C)[C@@H](O)CC[C@@H]12
- Potency [1]: inconclusive [inhibitor, partial curve, poor fit]
- Potency [9]: inconclusive [inhibitor, partial curve]

Structure (SMILES): CCCCc1oc2ccccc2c1C(=O)c1cc(I)c(OCCN(CC)CC)c(I)c1
- Potency [1]: inconclusive [inhibitor, partial curve]
- Potency [9]: inconclusive [inhibitor, single point]

Structure (SMILES): O=C1NC(=O)C(c2ccccc2[N+](=O)[O-])=C1Nc1ccc(O)c(Cl)c1
- Potency [1]: inconclusive [inhibitor, single point]
- Potency [9]: inconclusive [inhibitor, single point]

Structure (SMILES): COc1cc2nc(N3CCCN(C)CC3)nc(NC3CCN(Cc4ccccc4)CC3)c2cc1OC
- Potency [1]: inconclusive [inhibitor, partial curve, poor fit]
- Potency [9]: inconclusive [inhibitor, partial curve, poor fit]
